2 compounds from PubChem BioAssay (NCATS) can be followed below.

Records with an inconclusive call do not appear. Unless noted, calls come from the whole dose curve; as a rule, active = well fitted inhibition curve with a large enough effect; inconclusive = small, poorly fitted or top-dose-only effect; inactive = no such curve, though single readings can be large or run the other way. The source holds more than one record for some entries. The other results are left out here. The source may hold further records. Results that share an entry are repeats across runs, samples, wells, individuals or studies.

Assay [1] concerns the target Cytochrome P450 1A2 (Homo sapiens) (UniProt P05177). The experiment in a line: p450-cyp1a2 (AID 410; calls by dose curve). Particulars: recombinant CYP1A2, luciferin-ME demethylation, luminescence. A digest of the protocol:
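Luminescent demethylation readout: Luciferin-ME (100uM, equal to Km) turned over by 20nM CYP1A2 for 60 min at room temperature after NADPH regeneration addition, following 10 min compound preincubation. Normalization used 57 uM furafylline as full inhibition.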

Assay [2] concerns the target Cytochrome P450 2C9 (Homo sapiens) (UniProt P11712). The experiment in a line: qHTS Assay for Inhibitors and Substrates of Cytochrome P450 2C9 (AID 883). Note: nearly all actives have a fitted effect of over 60% in size. Conditions: recombinant CYP2C9, luciferin-H luminescence, 60 min. The procedure: NIH Molecular Libraries Screening Centers Network [MLSCN] NIH Chemical Genomics Center [NCGC] MLSCN Grant: None NCGC Assay Overview: The P450 gene superfamily is involved in the metabolism and clearance of xenobiotics. This assay used human CYP2C9 to measure the hydroxylation of deoxyluciferin (Luciferin-H; P450 Glo-Buffer) to luciferin. The luciferin is then measured by luminescence after the addition of a luciferase detection reagent. Luciferin-H concentration in the assay was equal to its Michaelis constant KM for CYP2C9. Inhibitors and some substrates limit the production of luciferin, and decrease measured luminescence.
NCGC Assay Protocol Summary: Two uL of enzyme and substrate mix (final concentrations: 10nM CYP2C9, 100uM Luciferin-H, 25mM KPO4) were dispensed into a white, solid bottom 1536-well microtiter plate. 23nL of compound was transferred by a pin tool. The plate was incubated at 37C for 10 min. Two uL of an NADPH regeneration solution (Promega supplied reagent) was dispensed and the reaction was allowed to continue for 60 min at 37C. Then the reaction was stopped by reconstituted P450 Glo-Buffer. After another 20 min of incubation the plate was read on the ViewLux (Perkin Elmer) at 60 sec exposure and 2x2 binning. This protocol was carried out with Promega-Glo reagents and further information can be found at http://www.promega.com/tbs/tb325/tb325.pdf. […]
(In general: In qHTS, concentration-response curves come from the screen itself.)
Potency is the fitted concentration of half-maximal effect.

UniProt P05177, sequence (P05177 whole entry, looked up): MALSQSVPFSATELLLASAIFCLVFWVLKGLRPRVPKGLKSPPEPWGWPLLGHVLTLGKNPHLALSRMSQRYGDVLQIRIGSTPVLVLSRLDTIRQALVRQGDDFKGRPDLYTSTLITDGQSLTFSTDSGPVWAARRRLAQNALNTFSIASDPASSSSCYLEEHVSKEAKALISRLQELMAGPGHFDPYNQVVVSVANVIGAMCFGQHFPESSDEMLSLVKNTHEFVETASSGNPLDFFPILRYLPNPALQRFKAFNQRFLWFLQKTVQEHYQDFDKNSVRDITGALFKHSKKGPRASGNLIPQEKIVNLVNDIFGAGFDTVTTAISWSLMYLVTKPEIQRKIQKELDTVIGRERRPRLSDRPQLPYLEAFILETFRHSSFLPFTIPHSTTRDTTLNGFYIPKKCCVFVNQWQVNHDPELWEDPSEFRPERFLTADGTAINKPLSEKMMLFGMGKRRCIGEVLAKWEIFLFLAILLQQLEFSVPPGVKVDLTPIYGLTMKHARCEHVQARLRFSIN
UniProt P11712, sequence (P11712 whole entry, looked up): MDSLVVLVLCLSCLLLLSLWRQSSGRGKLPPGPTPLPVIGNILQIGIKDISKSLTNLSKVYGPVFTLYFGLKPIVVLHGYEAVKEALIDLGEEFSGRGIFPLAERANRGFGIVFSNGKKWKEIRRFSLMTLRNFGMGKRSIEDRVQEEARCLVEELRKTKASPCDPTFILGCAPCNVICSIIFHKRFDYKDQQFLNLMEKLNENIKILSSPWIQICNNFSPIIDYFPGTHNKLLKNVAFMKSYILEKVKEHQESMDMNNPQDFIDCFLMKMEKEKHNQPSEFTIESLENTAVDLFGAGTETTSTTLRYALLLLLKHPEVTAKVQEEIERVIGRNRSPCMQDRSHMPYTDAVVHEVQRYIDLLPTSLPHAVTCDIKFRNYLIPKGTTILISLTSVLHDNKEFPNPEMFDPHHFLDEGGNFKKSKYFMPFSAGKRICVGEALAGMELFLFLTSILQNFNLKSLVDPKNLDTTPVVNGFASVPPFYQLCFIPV

With `COc1ccc([C@@H]2CNC(=O)C2)cc1OC1CCCC1`, the Potency result in assay [1] was “active: 10, 3.16, 3.98, 2.51 µM [separate samples]”.

`COc1ccc2c(c1OC)C(=O)OC2[C@H]1c2c(cc3c(c2OC)OCO3)CCN1C` (some centres not stated): the Potency result in assay [2] was “active: 5.01, 2.51, 1.26, 1.58 µM [separate samples]”.
